# Measurements reported in the supplement of paper PMC3334620.
# Over roughly 33,000 sequences, “E-score (-0.5 to 0.5)” has its median near -0.011; the highest 2% begin near 0.28. Some of the results follow.
# Molecular target: T1, Gcr1 (UniProt P07261)
# T1 sequence: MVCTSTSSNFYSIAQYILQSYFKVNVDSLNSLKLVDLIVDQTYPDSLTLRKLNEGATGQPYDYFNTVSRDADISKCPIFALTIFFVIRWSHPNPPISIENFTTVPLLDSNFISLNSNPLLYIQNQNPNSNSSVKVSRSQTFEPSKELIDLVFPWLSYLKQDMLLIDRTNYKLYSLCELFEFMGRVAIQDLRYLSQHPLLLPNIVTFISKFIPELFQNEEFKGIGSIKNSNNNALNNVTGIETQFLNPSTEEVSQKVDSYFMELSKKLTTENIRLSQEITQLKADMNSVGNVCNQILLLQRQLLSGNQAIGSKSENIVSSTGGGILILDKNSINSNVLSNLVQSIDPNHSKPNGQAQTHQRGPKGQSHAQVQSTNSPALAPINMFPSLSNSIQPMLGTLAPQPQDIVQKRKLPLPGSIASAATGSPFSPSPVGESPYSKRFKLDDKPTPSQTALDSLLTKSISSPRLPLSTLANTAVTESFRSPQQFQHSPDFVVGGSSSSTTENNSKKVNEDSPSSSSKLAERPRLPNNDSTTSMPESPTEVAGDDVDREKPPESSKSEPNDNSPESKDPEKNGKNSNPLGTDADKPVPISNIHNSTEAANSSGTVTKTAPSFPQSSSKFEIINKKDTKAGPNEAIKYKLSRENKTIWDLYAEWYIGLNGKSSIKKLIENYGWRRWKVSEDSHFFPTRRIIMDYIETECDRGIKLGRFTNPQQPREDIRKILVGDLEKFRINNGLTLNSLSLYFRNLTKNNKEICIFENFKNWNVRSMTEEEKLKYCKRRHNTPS
# Experiment: PBM E-score (8-mer binding enrichment) (E-score (-0.5 to 0.5)); higher = stronger / more preferred TF binding; most listed sequences are background and not binding sites
# Details: protein concentration: 100 nM; construct: GST-full length
# Protocol: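 Universal 'all 10-mer' protein binding microarrays (Agilent AMADID 015681) probed with GST-tagged S. cerevisiae TFs (full-length or DBD) made by in vitro transcription/translation (PURExpress), about 100-200 nM. Bound TF was detected with fluorescent anti-GST. Each ungapped 8-mer (which stands for itself and its reverse complement) is scored by the PBM enrichment score (E-score), a modified Wilcoxon-Mann-Whitney statistic from -0.5 to +0.5, computed with the Universal PBM Analysis Suite. Scale: above 0.35 generally sequence-specific binding.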
row,Sequence,PBM E-score
1,TAGGACTA,-0.152
2,CAGCTCTC,-0.09
3,CAGCAGTA,-0.21
4,GCATTACC,-0.107
5,GACCGTAA,-0.0341
6,AGACGGAC,-0.22
7,AAGACGGG,0.16
8,AATTACGT,-0.235
9,ATGTGATA,-0.0572
10,ACGAGCGC,-0.0852
11,AATTTGGC,0.0642
12,GAACGCCC,-0.0877
13,ACTGGAAG,0.463
14,GCCTAAGC,-0.167
15,ATCCCCCA,-0.0404
16,ATGCTTGC,-0.302
17,ACATTACG,0.091
18,CCCCACAA,0.305
19,CGCCTCTA,0.228
20,CCGACAGA,-0.0124
21,CGAAGCTA,0.198
22,GCAACAAA,0.00754

row,Sequence,PBM E-score
1,CTTTGGGA,0.13
2,AGGATCCT,0.301
3,CTGTACAG,-0.0384
4,GGAATACA,-0.00837
5,ACCAAGAG,-0.134
6,ACGTTCCT,-0.0486
7,CTAACAAG,0.129
8,ATCGGGGA,-0.0517
9,AGCGGATA,0.0701
10,CGGCTCTC,-0.134
11,GAGCTCAA,-0.17
12,CGGCGCCC,0.359
13,AGAGTGAA,0.0212
14,GGCTAGAA,-0.0827
15,ACGCCCCT,-0.19
16,AGAGGCGC,0.279
17,ACGACCAC,0.0266
18,GCGGCTCA,0.19
19,CGTTATAG,-0.142
20,ATGTGGTG,0.0573
21,AAACCGAT,-0.0704
22,CAGCGGCC,0.166

row,Sequence,PBM E-score
1,AACCCCCA,-0.138
2,CATTTCTC,0.111
3,TGAGAAAA,0.0932
4,GCACTGCC,-0.0612
5,GAGGTTCA,-0.16
6,TACCCGAA,0.0359
7,CGCACCTA,0.0792
8,ACATATCG,-0.0943
9,CGTACTTC,0.00512
10,ATAGGCAG,0.227
11,ACAACAGA,-0.18
12,AGCCCAGA,0.0713
13,CTAAAAAC,-0.0549
14,CCTAGCCG,-0.0179
15,GCGCGTCC,0.157
16,AACTTATC,0.166
17,ATCACCCC,0.108
18,GAGACTGC,-0.187
19,GCGCTTCA,-0.0425
20,AAGACCAA,-0.003
21,AAGGGGCG,-0.119
22,CCACGTAG,0.0903

row,Sequence,PBM E-score
1,CGTTAAAG,-0.00879
2,CGTGCTTC,0.0359
3,TCGTGTCA,-0.056
4,ACTGATTA,0.078
5,CCCTGCGC,-0.105
6,AAACTATG,0.0028
7,ACGTTAAA,-0.0417
8,AAGTGTCC,-0.173
9,AACTAGTA,0.176
10,AGAATACT,0.0845
11,CCCAGAAG,0.233
12,CAACCAGA,0.182
13,AGCCTTGG,-0.156
14,CAAGTAAC,-0.0163
15,CGAGGCTA,-0.0217
16,ATGTATGA,0.0274
17,GCACTCTA,0.0088
18,CCCATTGA,0.0816
19,GCCATCAC,-0.195
20,AACGAGTT,-0.00987
